Reference: PubChem BioAssay AID2147 (National Center for Advancing Translational Sciences (NCATS), 2009)
The campaign covered roughly 230,000 compounds. About 3,600 (1.6%) were called active. This list was built around the results that the source calls inconclusive (neither active nor inactive); the mix of calls is not that of the screen. Calls come from the whole dose curve; as a rule, active = well fitted inhibition curve with a large enough effect (not every such curve was filed as active); inconclusive = small, poorly fitted or top-dose-only effect, or another doubt; inactive = no such curve, though single readings can be large or run the other way. Potencies of inconclusive entries are doubtful fits and often do not repeat.
Note: nearly all actives have a fitted effect of over 50% in size.
Potency is the fitted concentration of half-maximal effect; tags give direction and shape of the fitted curve.
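Throughout, for activity change, negative = inhibition: 0% = wells with enzyme and -100% = buffer wells without enzyme.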

What follows are compounds tested against Lysine-specific demethylase 4E (Homo sapiens) (UniProt B2RXH2) (assay: qHTS Assay for Inhibitors of Human Jumonji Domain Containing 2E (JMJD2E)). Details: JMJD2E catalytic domain, FDH-coupled NADH fluorescence (FDH is formaldehyde dehydrogenase); series mostly up to 57.1 µM; activity change, negative = inhibition: at the top concentration.
Chain of UniProt B2RXH2 (B2RXH2 whole entry, looked up, the tested form may be a part): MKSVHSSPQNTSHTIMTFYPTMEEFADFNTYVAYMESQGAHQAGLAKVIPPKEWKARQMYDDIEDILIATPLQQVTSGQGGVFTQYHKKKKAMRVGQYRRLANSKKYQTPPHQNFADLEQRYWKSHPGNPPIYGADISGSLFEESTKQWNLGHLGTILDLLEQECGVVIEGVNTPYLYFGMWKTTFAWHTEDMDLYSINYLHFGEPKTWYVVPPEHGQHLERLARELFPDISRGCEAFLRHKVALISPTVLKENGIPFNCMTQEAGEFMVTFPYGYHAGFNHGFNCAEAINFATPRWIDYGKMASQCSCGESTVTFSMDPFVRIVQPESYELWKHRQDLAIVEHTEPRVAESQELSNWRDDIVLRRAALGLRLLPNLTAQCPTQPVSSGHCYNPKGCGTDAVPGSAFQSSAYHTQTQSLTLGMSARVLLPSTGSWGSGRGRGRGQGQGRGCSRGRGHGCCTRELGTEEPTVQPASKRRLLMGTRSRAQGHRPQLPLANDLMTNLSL
`Cc1ccc2cc(C)c3nnc(SCC(=O)Nc4nc5c(s4)CCCC5)n3c2c1C` was tested, and the “activity change, negative = inhibition” value was inactive: -2.89%. In the case of `COc1ccc(-c2ccc(OC)c([C@H]3[C@@H]4C=CCC[C@@]4(C)C(=O)N3Cc3ccccc3)c2)cc1OC`, the Potency is reported as inconclusive: 31.6 µM [inhibitor, single point]. With `COc1ccc(CNC(=O)COC(=O)c2c(-c3c(F)cccc3Cl)noc2C)cc1OC` the Potency was inconclusive: 39.8 µM [inhibitor, single point]. With `CCNC(=S)Nc1cc(OCC)c(NC(=O)c2cccs2)cc1OCC` the Potency was inconclusive: 31.6 µM [inhibitor, single point]. `Cc1c(C)n(CC(O)CN2CCCCCC2)c2ccccc12` (stereo unspecified) was tested, and the Potency was inconclusive: 39.8 µM [inhibitor, single point]. For `CN(c1ccccc1)S(=O)(=O)c1cccc(C(=O)NCCc2ccc(O)c(O)c2)c1`, the Potency was active: 14.1 µM. With `COc1ccc(-n2nc(C(=O)NCC(=O)N3CCN(c4ccccn4)CC3)c3ccccc3c2=O)cc1OC` the “activity change, negative = inhibition” value was inactive: -1.15%. In the case of `O=C(NCc1cccs1)C1CC(c2ccc(Cl)c(Cl)c2)=NO1` (stereo unspecified), the Potency is reported as inconclusive: 28.2 µM [inhibitor, partial curve]. In the case of `O=C1NC[C@H](Cc2ccc(O)cc2)N(CCc2cccc3ccccc23)C1=O`, the Potency is reported as inconclusive: 25.1 µM [inhibitor, single point]. For `Cc1cc(C)c(NC(=O)Nc2ccccc2)c(Cl)c1`, the “activity change, negative = inhibition” value was inactive: 2.32%. With `CCn1nc(C(=O)OCC(=O)c2cc(C)n(Cc3cccs3)c2C)c2ccccc2c1=O` the Potency was inconclusive: 28.2 µM [inhibitor, single point]. `O=C(Nc1ccccc1-c1nnn(CC(=O)N2CCCc3ccccc32)n1)c1ccco1` was tested, and the Potency was inconclusive: 35.5 µM [inhibitor, single point]. `COc1cc(/C=C2\SC(=Nc3ccc(O)cc3)NC2=O)cc(OC)c1O` was tested, and the “activity change, negative = inhibition” value was inactive: 1.71%. With `Cc1nnc(SCC(=O)c2ccccc2F)n1Cc1ccccc1` the Potency was inconclusive: 35.5 µM [inhibitor, single point]. With `CCN(/N=C/c1cccs1)c1cc(=O)n(C)c(=O)[nH]1` the Potency was inconclusive: 39.8 µM [inhibitor, single point]. For `CCOC(=O)C1CCCN(CC(=O)NC2CC2)C1` (stereo unspecified), the Potency was inconclusive: 39.8 µM [inhibitor, single point]. `CCCCn1c(N)c(NCC(C)C)c(=O)[nH]c1=O` was tested, and the Potency was inconclusive: 35.5 µM [inhibitor, single point]. For `CCn1c(CSc2nnc(-c3ccncc3)n2C)nc2cc(C(=O)O)ccc21`, the Potency was inconclusive: 28.2 µM [inhibitor, single point]. For `Cn1cc(/C=N/NC(=O)COc2ccccc2[N+](=O)[O-])c2ccccc21`, the “activity change, negative = inhibition” value was inactive: -1.09%. With `CC(C)CCN(CCC(C)C)C(=O)Cc1c(O)c2ccccc2[nH]c1=O` the Potency was inconclusive: 31.6 µM [inhibitor, single point]. In the case of `Cc1ccc(OCC(=O)NNC(=O)Cn2nnc(-c3ccccc3)n2)cc1`, the Potency is reported as inconclusive: 39.8 µM [inhibitor, single point]. In the case of `Cc1c(O)ccc2c3c(c(=O)oc12)CCCC3`, the Potency is reported as inconclusive: 31.6 µM [inhibitor, partial curve]. With `CC(C)C(=O)NC(=S)/C=C1/N(C)c2ccccc2C1(C)C` the “activity change, negative = inhibition” value was inactive: -28%. With `O=C(CSc1nnc(-c2cccs2)n1CC1CCCO1)c1cc2ccccc2o1` (stereo unspecified) the “activity change, negative = inhibition” value was inactive: -3.49%. In the case of `C=CCOC(=O)COc1ccc2c(C)c(C)c(=O)oc2c1C`, the Potency is reported as inconclusive: 28.2 µM [inhibitor, partial curve]. With `COC(=O)CNC(=O)C1(C)C=CC2(CCCCC2)N1C(C)=O` (stereo unspecified) the “activity change, negative = inhibition” value was inactive: 7.71%. For `O=C(CSc1ncn[nH]1)c1ccc2c(c1)OCCO2`, the Potency was inconclusive: 39.8 µM [inhibitor, single point]. `CC(=O)N1CCN(c2ccc(NC(=O)c3ccc(C(C)(C)C)cc3)cc2)CC1` was tested, and the “activity change, negative = inhibition” value was inactive: 1.48%. In the case of `COc1cc(/C=C(\C#N)c2nc3ccccc3s2)cc([N+](=O)[O-])c1O`, the “activity change, negative = inhibition” value is reported as inactive: -27.4%. In the case of `Cc1ccc(C2=NN(C(=O)CN3C(=O)c4ccccc4S3(=O)=O)C(c3ccco3)C2)cc1` (stereo unspecified), the Potency is reported as inconclusive: 35.5 µM [inhibitor, single point]. With `CNC(CC(=O)O)C(=O)O` (stereo unspecified) the “activity change, negative = inhibition” value was inactive: -0.629%. `O=C(CCCOc1ccccc1)N1CCCCC1` was tested, and the “activity change, negative = inhibition” value was inactive: 4.29%. In the case of `CC1CN(C2CCN(C(=O)COc3ccccc3)CC2)CC(C)O1` (stereo unspecified), the Potency is reported as inconclusive: 31.6 µM [inhibitor, single point]. `CC(C)C(=O)Nc1ccc(C(=O)NNC(=S)NC(=O)c2ccccc2[N+](=O)[O-])cc1` was tested, and the Potency was inconclusive: 39.8 µM [inhibitor, single point]. In the case of `COc1ccc(NC(=O)c2cn(-c3ccccc3)nc2-c2ccncc2)cc1`, the “activity change, negative = inhibition” value is reported as inactive: -28.1%. `CCCCc1c(C)c(C#N)c2nc3ccccc3n2c1Nc1c(C)n(C)n(-c2ccccc2)c1=O` was tested, and the Potency was inconclusive: 39.8 µM [inhibitor, single point]. For `Cc1ccnc(N2CCN(C(=O)CSc3nc4ccccc4nc3N3CCC(C)CC3)CC2)c1`, the Potency was inconclusive: 39.8 µM [inhibitor, single point]. With `CCc1cc2c(=O)[nH]c(N3CCCC3)nc2s1` the Potency was inconclusive: 28.2 µM [inhibitor, partial curve]. For `CCOC(=O)N1CCN(CCC(=O)c2ccc(Cl)cc2)CC1`, the “activity change, negative = inhibition” value was inactive: -18.1%. For `CCNC(=S)N(Cc1ccco1)Cc1cc2cc(OCC)ccc2[nH]c1=O`, the “activity change, negative = inhibition” value was inactive: -118%. With `CCOC(=O)c1cc(=O)n2[nH]c(-c3ccc(C)cc3)cc2n1` the Potency was inconclusive: 11.2 µM [inhibitor, partial curve]. With `Cc1ccc(-n2c(-c3ccncc3)nnc2-c2ccco2)cc1` the Potency was inconclusive: 28.2 µM [inhibitor, partial curve]. For `CCS(=O)(=O)N1CCN(c2ccc(Cl)cc2[N+](=O)[O-])CC1`, the “activity change, negative = inhibition” value was inactive: 5.89%. With `CC(=O)c1ccc(NC(=O)C2(S(=O)(=O)c3ccccc3)CC2)cc1` the Potency was inconclusive: 31.6 µM [inhibitor, single point]. `COc1ccc(OC)c(C2=NOC(C(=O)NCc3cccs3)C2)c1` (stereo unspecified) was tested, and the Potency was inconclusive: 25.1 µM [inhibitor, single point]. In the case of `O=C(COC(=O)c1cc(-c2cccc(Br)c2)nc2ccccc12)NCC1CCCO1` (stereo unspecified), the Potency is reported as inconclusive: 31.6 µM [inhibitor, single point].
